# According to PMC12040169 (PLOS Biology, 2025):
# This is one part of the list.
# Tested on: T1, C. trachomatis L2/434/Bu expressing GFP (CTL2-GFP)
# T1 construct: L2/434/Bu GFP intracellular growth in HeLa cells
# Design: species or system HeLa; C. trachomatis total inclusion area by high-content imaging, normalised to DMSO
# Details: total inclusion area; 28.5 h, 10 µM; inhibitor
# Method in brief: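 Host cell viability was gauged from Hoechst-stained nuclei counts, while chlamydial growth was taken from total inclusion area and inclusion number per well. Cells were fixed and imaged by high-content microscopy once bulk GFP and resorufin fluorescence had been measured.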
row,Structure (SMILES),% of control remaining
1,Cc1cc(NS(=O)(=O)c2ccc(Oc3ccccc3)cc2)n(C)n1 [CBK067249],106.136
2,O=C(NCCC1=CCCCC1)Nc1ccc2ccccc2c1 [CBK044195],90.6713
3,O=C(c1ccccc1)c1ccc(S(=O)(=O)N2CCCN(Cc3c[nH]nc3-c3ccccc3)CC2)cc1 [CBK062773],71.6682
4,O=C1CC[C@@H](NCc2ccco2)[C@H](c2cc(F)cc(F)c2)N1 [CBK283127],68.5754
5,Oc1nnc(-c2ccc(Cl)c(Cl)c2)n1C1CCCCC1 [CBK074888],93.1431
6,CN(C)CCCOC(=O)C(C)(c1ccccc1)c1ccccc1 [CBK265325C],97.6059
7,CCN1CC(C(=O)N2CCCCC2CN(C)C)CC1=O (centres unmarked) [CBK282056],78.8659
8,Cc1ccc(-n2c3nc(=O)n(C)c(=O)c-3cc3ccccc32)cc1 [CBK288007],91.1342
9,CC1CCN(CN2C(=O)C(=O)c3ccccc32)CC1 [CBK261304],99.8262
10,Cc1c(C)n2c(SCC(=O)N3CCCC3)nnc2[nH]c1=O [CBK287686],90.0791
11,CCOc1ccsc1C(=O)Nc1cc(C)ccn1 [CBK004029],18.8208
12,C[C@H]1[C@@H]2[C@@H](O)C([C@H](C)C(=O)NCc3ccccn3)CC[C@@]2(C)CC[C@@H]1NC(=O)C1CC1 (some centres unmarked) [CBK289445],124.889
13,COCCNc1nc(-c2cccc(-c3ccccc3)c2)cnc1N [CBK063474],146.749
14,COc1ccc(C)cc1S(=O)(=O)N(CC(=O)O)Cc1ccccc1 [CBK267847],84.2687
15,COc1cccc(CC(=O)N2CCCC2c2cc(Nc3nc(C)cc(C)n3)cc(C)n2)c1 (centres unmarked) [CBK285999],113.085
16,Clc1ccc(OCc2ccccc2)c(CNCCN2CCOCC2)c1 [CBK278162C],78.3864
17,CC(C)c1nsc(NCCc2nnc3n2CCCC3)n1 [CBK306425],89.8197
18,CCC(CC)C(=O)N(C)c1c(C)nc2ccc(C(=O)Nc3cccc(NS(C)(=O)=O)c3)cn12 [CBK146526],106.741
19,O=C(NCCN1CCOCC1)C1(c2ccccc2)CCCC1 [CBK149538],100.21
20,COC1C(O)C(CO)OC1n1cc(F)c(Oc2c(C)cc(C)cc2C)nc1=O (centres unmarked) [CBK201279],94.4182
21,CC(=O)c1nnn(-c2ccc(Cl)cc2Cl)c1C [CBK085972],59.4093
22,CCOC(=O)c1ccc(NC(=O)C2CC(=O)NC(Nc3nc4ccccc4s3)=N2)cc1 (centres unmarked) [CBK264396],95.4334
23,CC(C)C[C@@H]1N[C@H](C(=O)N2CCN(c3ncccn3)CC2)Cc2cn(C)c3cccc1c23 [CBK289421],98.6139
24,FC(F)(F)c1ccnc(OCCNc2ccccc2)n1 [CBK115839],84.6574
25,CC(C)(N)C(=O)N1CC(C(=O)N2CC3(CCN(S(C)(=O)=O)CC3)c3ccccc32)C(c2cc3ccccc3o2)C1 (centres unmarked) [CBK136734T],57.1928
26,CCC1c2ccc(C)n2CCN1Cc1cnc(C)n1C (centres unmarked) [CBK283038],91.6721
27,CC(C)n1nccc1C(=O)NCC(c1ccc(F)cc1)N1CCCC1 (centres unmarked) [CBK283025],98.6479

row,Structure (SMILES),% of control remaining
1,CC(=O)Nc1ccc(CNC(=O)c2cccnc2O)cc1 [CBK304559],81.0332
2,O=C(c1ccccc1F)N1C[C@H](c2ccsc2)[C@H]2CN(Cc3ccccc3)CC[C@H]21 [CBK285655],81.4815
3,NC(=O)c1cc(-c2ccccc2)sc1NC(=O)C(Cc1ccccc1)N1C(=O)c2ccccc2C1=O (centres unmarked) [CBK265843],103.198
4,CN(C)CCCNC(=O)c1cc2c(n(-c3ccc(Cl)c(Cl)c3)c1=O)CC(C)(C)CC2=O [CBK293952],103.584
5,CCc1ccc(C2=CC(c3cccc(C)c3)n3nnnc3N2)cc1 (centres unmarked) [CBK268095],74.6686
6,Cc1ccc2c(c1)CCCN2C(=O)c1cccnc1NCc1ccc2c(c1)OCO2 [CBK160113],81.8329
7,Cc1cccc(CN2CCC(NC(=O)c3cccc4nn[nH]c34)CC2)c1 [CBK305411],104.384
8,Cc1cc(COC(=O)N2CCCC(C(F)(F)F)C2)cc(C)n1 (centres unmarked) [CBK200150],39.7561
9,Cc1cc2nc(-c3ccccn3)[nH]c2cc1C [CBK000122],16.707
10,COc1ccc(O)c(CN2CCC(N3CCCCC3)CC2)c1 [CBK261849],98.3321
11,O=C1Nc2c(cnn2-c2ccccc2Cl)C2=NCCCN12 [CBK283331],98.4057
12,Cc1noc(C)c1C(=O)N1CCN(c2ccccc2)CC1 [CBK200165],95.8911
13,Cc1ccc(NC(=O)Cn2cnc3c(=O)n(C)c(=O)n(C)c32)c(O)c1 [CBK267002],96.6042
14,CC(=O)NCCNC(=O)c1ccc(-c2ccccc2)nc1NCCc1ccccn1 [CBK076595],103.699
15,CN(CC(=O)O)C(=O)c1ccc(Oc2cccc(Br)c2)nc1 [CBK306485],49.7509
16,OC1(c2cccnc2)C2CCCC1CN(Cc1ccc(F)cc1)C2 (centres unmarked) [CBK285204],85.2771
17,NC(=O)C1(Cc2cccc(-c3cccs3)c2)CCN(C(=O)Cc2ccccc2)CC1 [CBK286272],65.8063
18,COC(=O)c1nc(Cl)c(Cl)nc1NS(=O)(=O)c1cccc(Cl)c1C [CBK004709],86.5417
19,O=c1[nH]c2ncc(-c3ccccc3)nc2n1CCCN1CCOCC1 [CBK064805],91.1072
20,Cn1c(COc2cncc(Cl)n2)cc2ccccc21 [CBK176002],62.8764
21,O=C1NC2=C(C(=O)N(CCN3CCCC3)C2)C(c2ccccc2)N1 (centres unmarked) [CBK283493],80.4869
22,c1ccc(Nc2nccc(C3CCCN(Cc4ccc5[nH]ccc5c4)C3)n2)nc1 (centres unmarked) [CBK286093],104.106
23,COc1ccccc1C(=O)Nc1nc2ccc(NC(C)=O)cc2s1 [CBK287303],104.984
24,CN1CCC(=NNC(=O)c2ccc(N(Cc3ccccc3)S(C)(=O)=O)cc2)CC1 [CBK262742],111.155
25,Cn1c(SCC(=O)Nc2ccc(Oc3ccc(Cl)cc3)cc2)nnc1-c1ccncc1 [CBK269654],73.805
26,c1cnc(NCc2cc3n(n2)CCN(CC2CCCCO2)C3)cn1 (centres unmarked) [CBK306891],88.1154
27,O=C(Nc1[nH]nc(O)c1Cc1c(Cl)cccc1Cl)C1CCCCC1 [CBK084558],108.489

row,Structure (SMILES),% of control remaining
1,Nc1nc2c(cnn2[C@H]2C[C@@H](O)[C@@H](CO)O2)c(=O)[nH]1 [CBK201223],123.504
2,C=CCc1c(O)nc(SCC(=O)N2CCOCC2)[nH]c1=O [CBK073301],102.604
3,Cc1ccc(N(CC(=O)N/N=C/c2ccccc2)S(=O)(=O)c2ccccc2)cc1 [CBK262090],98.1645
4,Cc1cc(C(F)(F)F)nn1CC(=O)Nc1sc2c(c1C#N)CCC(C)C2 (centres unmarked) [CBK304619],55.2793
5,Cc1csc(Sc2nccnc2NC(C)C)n1 [CBK115203],108.658
6,c1ccc(Oc2ccc(Nc3cccc(-c4ccc(N5CCOCC5)cc4)n3)cc2)cc1 [CBK036986],129.751
7,CCNC(=O)N1CC2(CCN(CCS(=O)(=O)c3ccccc3)CC2)c2ccccc21 [CBK126698],92.0846
8,COc1ccc(Cn2ncnc2CC2CCNCC2)cc1 [CBK307071],69.2549
9,CC(=O)Nc1cccc(-c2cncc(N[C@H](CO)C(C)C)n2)c1 [CBK065475],113.634
10,O=C(c1ccc2ccccc2n1)N1CCC(Cc2ccccc2)CC1 [CBK200184],91.3673
11,c1ccc(-c2noc(CN3CCN(C(c4ccccc4)c4ccccc4)CC3)n2)cc1 [CBK265844],129.596
12,O=C(Cc1ccccc1Cl)NCc1nnc(-c2cccs2)o1 [CBK284643],81.9074
13,Cc1nn(S(=O)(=O)c2cccc3nsnc23)c(C)c1Cl [CBK270323],98.5421
14,CCN(CCO)c1ccc(Nc2cc(-c3cc4ccccc4o3)ncn2)cc1 [CBK090999],115.475
15,Cc1ccsc1CN(C)C(=O)NC1CCCc2c1cnn2CCO (centres unmarked) [CBK306349],56.3033
16,O=C(CC1CCCC1)NCCn1nc(-c2cccs2)oc1=O [CBK282386],93.3274
17,O=[N+]([O-])c1cc(F)ccc1Oc1cccc(Cl)c1Cl [CBK002604],124.055
18,CN1CCCN(c2cncc(-c3cccnc3)n2)CC1 [CBK037215],86.7558
19,CN(CC(=O)NNC(=O)c1cccs1)S(=O)(=O)c1ccc2ccccc2c1 [CBK267409],95.2887
20,O=S(=O)(Nc1nc(CCNCCO)cs1)c1ccc(Oc2ccccc2)cc1 [CBK034632],102.369
21,c1coc(-c2cc(Nc3ccc4[nH]ccc4c3)ncn2)c1 [CBK090862],85.2549
22,O=S(=O)(Nc1nccnc1N1CCN(c2ccccc2)CC1)c1ccc(F)cc1 [CBK048706],94.9471
23,CCOC(=O)c1cccnc1-c1cccc(C(N)=O)c1 [CBK149239],100.962
24,COC(=O)CC1(C)C(=O)CCC2(C)C1=CCc1ccccc12 (centres unmarked) [CBK006547],105.182
25,COc1cc(CNC2CCCc3c2cnn3C)cc(OC)c1 (centres unmarked) [CBK304306C],94.7018
26,Cc1ccncc1C(=O)NCc1ccccc1 [CBK200193],75.4768
